In PubChem BioAssay AID1346428 (National Center for Advancing Translational Sciences (NCATS), 2018):
Among all 48,000 compounds or so, about 1,200 (2.5%) were called active. Not shown: some 2% with an inconclusive outcome.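 How the source made its calls: active means activation of at least 60% and not above a set upper limit (about 1 call in 100 departs from these limits); inconclusive means activation of 40% to 60%, or above that upper limit; inactive means activation under 40%.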 This is one part of the list.

Each compound was assayed against Probable G-protein coupled receptor 32 (Homo sapiens) (UniProt O75388) (assay: qHTS for Agonists of Human Resolvin D1 Receptor DRV1). Conditions: CHO-K1 GPR32 beta-arrestin PathHunter luminescence, 90 min; at 76.9 µM; active compounds read high; zero percent set by DMSO-only wells.
Chain of UniProt O75388 (O75388 whole entry, looked up): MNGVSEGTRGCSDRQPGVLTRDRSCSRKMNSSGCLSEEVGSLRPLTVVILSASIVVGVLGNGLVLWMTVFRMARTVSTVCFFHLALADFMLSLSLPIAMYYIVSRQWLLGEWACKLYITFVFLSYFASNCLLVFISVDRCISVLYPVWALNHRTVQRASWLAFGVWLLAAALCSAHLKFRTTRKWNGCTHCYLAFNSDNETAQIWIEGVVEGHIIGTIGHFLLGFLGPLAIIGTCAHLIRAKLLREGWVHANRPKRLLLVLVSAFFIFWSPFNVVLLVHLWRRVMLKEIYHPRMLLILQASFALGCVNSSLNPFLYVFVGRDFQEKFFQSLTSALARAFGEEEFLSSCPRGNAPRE
Procedure, shortened: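 CHO-K1 cells stably expressing ProLink-tagged GPR32 and Enzyme Activator-tagged beta-arrestin were seeded at 2,500 cells/well overnight, exposed to compounds for 90 min at 37 °C, then read by beta-Gal complementation chemiluminescence after 1 h detection reagent.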
Further: 0% is about no effect.

activation, inactive:
CCc1nc2ccc(C(=O)NCc3cc(OC)ccc3OC)cc2nc1CC -25.7%
COC(=O)c1nc(Cl)c(Cl)nc1N 47.3%
CCOc1ccc(N2CC(c3nc4ccccc4n3CCOc3ccccc3OC)CC2=O)cc1 (stereo not given) -20.5%
COc1ccc(Cn2c(=O)n(Cc3ccco3)c(=O)c3oc4ccccc4c32)cc1 -16.6%
Cc1cccc2sc(N(CCN(C)C)C(=O)c3ccc4c(c3)OCCO4)nc12 -20.1%
CCOc1ccc(CCNC(=O)CS(=O)(=O)Cc2nc(-c3ccc(OC)cc3)oc2C)cc1 -4.09%
CCN(CC)c1ccc(NC(=O)c2cnn(-c3ccccc3)c2-n2cccc2)c(C)c1 -3.5%
CC(=O)N1CCc2cc(S(=O)(=O)CCC(=O)Nc3ccc(C)cc3Br)ccc21 15%
Cc1ccc(Cn2c(C)c3cnn(CC(=O)NCc4ccccc4)c(=O)c3c2C)cc1 -8.21%
COc1ccc(-c2nc(CSCC(=O)N3CCN(c4cc(Cl)ccc4C)CC3)c(C)o2)cc1 -13.9%
Cc1cc(OC(C)C(=O)Nc2cccc(-c3nc4ccccc4o3)c2)cc(C)c1Cl (stereo not given) -6.97%
CC(CCc1ccccc1)NC(=O)Cn1ncc2c3ccccc3n(Cc3ccccc3F)c2c1=O (stereo not given) -13.6%
CCc1nn(CC(=O)N2CCN(c3ccc(OC)cc3)CC2)c(=O)c2cc3sccc3n12 -18.3%
CC[C@@]1(c2ccccc2)NC(=O)N(C)C1=O -3.38%
O=C(CCn1c(=O)c2cccn2c2cccnc21)N1CCN(c2ccccc2)CC1 -14.7%
Cn1c(=O)oc2cc(S(=O)(=O)CCC(=O)N3CCN(c4ccccc4F)CC3)ccc21 -3.57%
COc1ccc(-c2cnc(C)o2)cc1S(=O)(=O)Nc1ccc(NC(C)=O)cc1 3.99%
CCC(=O)C1=C(c2ccc(F)cc2)N(C(=O)CC)n2c(nnc2-c2ccc(OC)cc2)S1 -27%
O=C(CSc1nccn1-c1cccc(Cl)c1)Nc1ccc2c(c1)OCO2 -3.65%
CCN(C(=O)C1CCN(S(=O)(=O)c2cc(Br)cc3c2N(C(C)=O)CC3)CC1)c1cccc(C)c1 9.02%
CCC(=O)NNc1ncnc2c1cnn2-c1ccc(C)c(Cl)c1 9.79%
Cc1ccc(-c2cc(C(=O)Oc3ccc(C#N)cc3)no2)cc1 30.5%
CCn1c(SCC(=O)Nc2ccccc2C(=O)OC)nc2ccsc2c1=O -7.15%
CCc1ccc(CSc2nc(-c3ccccc3F)nc3c2Cc2c(CO)cnc(C)c2O3)cc1 22%
CCN(Cc1ccccc1)C(=O)Cn1c(=O)n(-c2ccccc2)c(=O)c2c1c1cc(C)ccc1n2C 11.8%
O=C(CSc1nc(=O)[nH]c2c1CCC2)NCc1ccccc1Cl -5.74%
Cc1ccc(NC(=O)Cn2c(=O)n(Cc3ccco3)c(=O)c3oc4ccccc4c32)cc1C -0.395%
COc1ccc(OC(=O)c2nc(SCc3ccccc3F)ncc2Cl)cc1 -20%
CCC(C)NC(=O)c1nn(-c2ccc(C)cc2)nc1CO (stereo not given) 0.458%
Cc1cccc(CN2C(=O)c3ccccc3Sc3ccc(C(=O)NC4CCCCC4)cc32)c1 -19.2%
O=C(Nc1ccc2nc(SCC(=O)N3CCOCC3)sc2c1)c1cccc(Br)c1 0.699%
CC(C)(C)c1ccc(C(=O)NCC(c2cccnc2)N2CCc3ccccc3C2)cc1 (stereo not given) -15%
Cc1cccc(CNC(=O)C2CCC(CNS(=O)(=O)c3ccc4c(c3)CCCC(=O)N4)CC2)c1 (stereo not given) 12.4%
COc1cc(NC(=O)CN2CCN(c3ccc(F)cc3)CC2)cc(OC)c1 -19%
Cc1ccc2oc(-c3ccc(NC(=O)CCC(=O)O)cc3)nc2c1 -21.1%
Cc1ccc(NC(=O)CCc2c(C)nc3c(-c4ccc(F)cc4)c(C)nn3c2C)cc1F -10.9%
Cc1cc(C)c(Nc2ncnc3c2cnn3C)c(C)c1 -2.73%
CCn1cc2nc(SCC(=O)Nc3cc(OC)cc(OC)c3)n(Cc3ccc(Cl)cc3)c(=O)c2n1 -0.0407%
Cc1nn(CC(=O)NC2CCC(C)CC2)c(=O)c2c1sc1ccccc12 (stereo not given) 0.0637%
O=C(/C=C/c1ccccc1Cl)N1CCC(c2nc3ccccc3o2)CC1 9.45%
COC(=O)N1CCCc2cc(S(=O)(=O)NCc3ccccc3)ccc21 -3.74%
CCOc1ccc(NC(=O)c2sc3nc4n(c(=O)c3c2C)CCC4)cc1 8.07%
COc1ccc(-c2nn3c(=O)cc(CN4CCN(C(=O)/C=C/c5ccccc5)CC4)nc3s2)cc1 29.5%
Cc1cccc(C)c1NC(=O)c1ccc2c(c1)nnn2C1CCCC1 22.1%
CCOc1cc(-c2ccc(OC(=O)c3ccccc3Cl)c(OC)c2)cc(=O)c2c(C)oc(C)c12 -24.5%
COc1ccc(C2CC(=O)Nc3c2c(=O)[nH]c2nc4ccccc4n32)cc1 (stereo not given) 2.01%
CCNC(=O)c1ccc(NC(=O)N2CCCCc3ccccc32)cc1 11.3%
CCCCN(CC)CCNC(=O)C1CCN(S(=O)(=O)c2cccc3nsnc23)CC1 -0.221%
Cc1ccccc1COC(=O)c1nn(-c2ccccc2)nc1N -8.06%
COc1ccccc1N1CCN(C(=O)Cn2c(=O)n3nc(-c4cccc(F)c4)nc3c3ccccc32)CC1 2.74%
Cc1cc(C)cc(NC(=O)CSc2nc3c(c(=O)[nH]2)CN(Cc2ccc(F)cc2)CC3)c1 9.89%
CCn1cc(C(=O)Nc2cccc(Cl)c2)c2cc(OC)c(OC)cc2c1=O 18.2%
COc1cc(/C=C(/C#N)c2nc(-c3cc4ccccc4oc3=O)cs2)ccc1O -9.98%
CC1CCCCN1C(=O)CSc1nc(-c2ccccc2)no1 (stereo not given) 30.8%
Cc1c(Cl)cccc1NC(=O)Nc1c[nH]c(=O)[nH]c1=O -4.64%
Cc1cccc(NC(=O)CSc2nc3c([nH]c4ccccc43)c(=O)n2-c2cc(C)cc(C)c2)c1 10.2%
COc1cc(OC)cc(C(=O)Nc2nc(-c3nnn(-c4ccc(C)cc4)c3C)ns2)c1 38.5%
CCOC(=O)C1=C(CN2CCC(C)CC2)NC(=O)NC1c1ccc(OC(C)C)cc1 (stereo not given) 9.07%
CSc1cccc(-n2nnc(-c3nsc(NC(=O)c4cccs4)n3)c2C)c1 -9.88%
CCOC(=O)c1ccccc1NC(=O)CSc1nc(=O)[nH]c2c1CCCC2 3.99%
COc1ccc(Br)cc1CNC(=O)Cn1nc(C)n2c(cc3cc(F)ccc32)c1=O 2.71%
CCS(=O)(=O)N1CCCc2cc(C(=O)Nc3cc([N+](=O)[O-])ccc3C)ccc21 16.7%
COc1ccc(-n2c(C)nc3c(cnn3-c3ccc(C)c(C)c3)c2=O)cc1Cl -10.9%
CCc1ccc2occ(CC(=O)N(Cc3ccccc3)C3CCS(=O)(=O)C3)c2c1 (stereo not given) -15%
Cc1ccc(NC(=O)CN2C(=O)C(c3ccccc3)=NC23CCCCC3)cc1C -17.4%
COc1ccc(Nc2nc3c(S(=O)(=O)c4ccccc4)nnn3c3ccc(Cl)cc23)cc1 -2.24%
CCN(CC)CCCNC(=O)c1cn(CC)c2ccc(S(=O)(=O)N3CCC(C)CC3)cc2c1=O -3.55%
Cc1cc(=O)n(CC(=O)N2CCCCC2)c2c1c(C)nn2C 14%
COc1cccc(CNC(=O)Cn2c(=O)ccc3cc(S(=O)(=O)N4CCCC4)ccc32)c1 -4.92%
CCc1ccc(S(=O)(=O)c2nnn3c2nc(N(C)Cc2ccccc2)c2cc(Cl)ccc23)cc1 -1.23%
COCCCN1CCC(NC(=O)c2cc(Cl)c(N)c3c2OCC3)CC1 -16.4%
Cc1cc(Nc2ccccc2C)c2cccc(C)c2n1 33.6%
CCC(C)n1c(SCC(=O)Nc2ccccc2C(=O)OC)nc2ccsc2c1=O (stereo not given) -36.4%
Cc1ccc(C(=O)NCC(c2ccc(Cl)cc2)N2CCCCC2)cc1 (stereo not given) -10.3%
COCCCNC(=O)CCCn1c(SCC(=O)c2ccc(Br)cc2)nc2c(sc3ccccc32)c1=O -26.4%
CCc1ccc(NC(=O)C2CCCN(S(=O)(=O)c3ccc4c(c3)oc(=O)n4C)C2)cc1 (stereo not given) 45.9%
COc1cccc(CNC(=O)c2cccc(N3CCCS3(=O)=O)c2)c1 14.1%
Cc1ccc(Cl)c2sc(NC(=O)c3ccc(S(=O)(=O)N4CCCC4)cc3)nc12 5.04%
CCc1nn(CC(=O)NCCc2ccc(Cl)cc2)c(=O)c2cc3c(OC)cccc3n12 -15.9%
COc1ccccc1C(=O)Nc1cccc(OCc2cc(=O)n3ccccc3n2)c1 -14.3%
COC(=O)c1ccc(NC(=O)c2cnn(-c3ccc(Cl)cc3)c2C2CCN(C(=O)OC(C)(C)C)CC2)cc1 -16.9%
COc1cccc(NC(=O)c2oc3ccc(S(=O)(=O)N(C)C4CCCCC4)cc3c2C)c1 -15.9%
CC(C)(C)OC(=O)N1CCC(c2c(C(=O)N3CCCCC3)cnn2-c2ccc(F)cc2)CC1 -7.72%

activation, active:
Cc1nc2ccccc2c(=O)n1-c1ccc(NC(=O)c2ccccc2[N+](=O)[O-])cc1 67.9%
CC(=O)c1ccc(N2CCN(S(=O)(=O)c3ccc(-c4coc(C)n4)cc3)CC2)cc1 63%
